{"source": "the antibiotic and cytotoxicity screens of Wong et al. (2023)", "note": "This is one part of the list."}
{"test_system": "HepG2", "experiment": "cytotoxicity call (relative viability < 0.9)", "conditions": "10 µM"}
{"smiles": "C[C@H](CO)N1C[C@H](C)[C@H](CN(C)Cc2ccncc2)Oc2c(NS(=O)(=O)c3ccccc3)cccc2C1=O", "cytotoxicity call": "inactive"}
{"smiles": "CC(C)NC(=O)Nc1ccc2c(c1)C(=O)N([C@H](C)CO)C[C@H](C)[C@H](CN(C)C(=O)Nc1ccccc1)OCCCC[C@@H](C)O2", "cytotoxicity call": "inactive"}
{"smiles": "C[C@@H]1CN([C@@H](C)CO)C(=O)Cc2cc(NS(=O)(=O)c3cn(C)cn3)ccc2O[C@@H]1CN(C)Cc1ccc(C(=O)O)cc1", "cytotoxicity call": "inactive"}
{"smiles": "COc1ncnc(N)c1OC", "cytotoxicity call": "inactive"}
{"smiles": "C[C@H](CO)N1C[C@H](C)[C@H](CN(C)CC2CCCCC2)Oc2c(NS(=O)(=O)c3cn(C)cn3)cccc2C1=O", "cytotoxicity call": "inactive"}
{"smiles": "C[C@H](CO)N1C[C@H](C)[C@H](CN(C)Cc2ccccc2)OCCCC[C@H](C)Oc2ccc(NC(=O)C3CCCCC3)cc2C1=O", "cytotoxicity call": "inactive"}
{"smiles": "C[C@H](CO)N1C[C@H](C)[C@@H](CN(C)Cc2ccc(-c3ccccc3)cc2)Oc2ccc(NC(=O)C3CC3)cc2C1=O", "cytotoxicity call": "inactive"}
{"smiles": "C[C@@H]1CCCCO[C@H](CN(C)Cc2ccc3c(c2)OCO3)[C@@H](C)CN([C@@H](C)CO)C(=O)c2cc(NC(=O)Nc3ccc(C(F)(F)F)cc3)ccc2O1", "cytotoxicity call": "active"}
{"smiles": "COc1ccccc1S(=O)(=O)N[C@@H]1CC[C@H](CCNC(=O)C2CC2)O[C@H]1CO", "cytotoxicity call": "inactive"}
{"smiles": "C[C@@H]1CN([C@H](C)CO)C(=O)c2cc(NC(=O)c3ccccc3)ccc2O[C@@H](C)CCCCO[C@@H]1CN(C)Cc1ccc(Cl)c(Cl)c1", "cytotoxicity call": "active"}
{"smiles": "O=C(CN1C(=O)c2cccc3cccc(c23)C1=O)N1CCN(CCN2C(=O)[C@@H]3[C@@H](C2=O)[C@@H]2C=C[C@@H]3C2)CC1", "cytotoxicity call": "inactive"}
{"smiles": "COc1ccc(CN(C)C[C@@H]2Oc3ccc(NS(=O)(=O)c4cn(C)cn4)cc3CC(=O)N([C@@H](C)CO)C[C@@H]2C)cc1", "cytotoxicity call": "inactive"}
{"smiles": "CCCC(=O)Nc1ccc2c(c1)OC[C@@H](C)N(Cc1ccc(-c3ccccn3)cc1)C[C@@H](C)[C@H](OC)CN(C)C2=O", "cytotoxicity call": "inactive"}
{"smiles": "CO[C@H]1CN(C)C(=O)c2cc(NC(=O)CC(F)(F)F)ccc2OC[C@@H](C)N(S(=O)(=O)c2cn(C)cn2)C[C@H]1C", "cytotoxicity call": "inactive"}
{"smiles": "COc1ccc(S(=O)(=O)Nc2ccc3c(c2)C(=O)N([C@H](C)CO)C[C@H](C)[C@H](CN(C)C(=O)CCC(F)(F)F)OCCCC[C@H](C)O3)cc1", "cytotoxicity call": "inactive"}
{"smiles": "C[C@@H]1CN([C@@H](C)CO)C(=O)c2cc(C3=CCCCC3)cnc2O[C@H]1CN(C)C(=O)CN1CCOCC1", "cytotoxicity call": "inactive"}
{"smiles": "Cc1ccc(S(=O)(=O)Nc2cccc3c2O[C@H](CN(C)C(=O)Nc2ccc(C(F)(F)F)cc2)[C@@H](C)CN([C@H](C)CO)C3=O)cc1", "cytotoxicity call": "inactive"}
{"smiles": "COc1ccccc1CNC(=O)C[C@@H]1C[C@@H]2c3cc(NC(=O)c4cccnc4)ccc3O[C@@H]2[C@H](CO)O1", "cytotoxicity call": "inactive"}
{"smiles": "CO[C@H]1CN(C)C(=O)c2ccc(NS(C)(=O)=O)cc2OC[C@@H](C)N(C(=O)c2ccc3c(c2)OCO3)C[C@@H]1C", "cytotoxicity call": "inactive"}
{"smiles": "C[C@@H]1CCCCO[C@H](CN(C)Cc2ccncc2)[C@H](C)CN([C@@H](C)CO)C(=O)c2cc(NC(=O)C3CCCCC3)ccc2O1", "cytotoxicity call": "active"}
{"smiles": "COc1ccc(CN(C)C[C@@H]2OCCCC[C@H](C)Oc3ccc(NC(=O)Nc4ccccc4)cc3C(=O)N([C@H](C)CO)C[C@@H]2C)cc1", "cytotoxicity call": "inactive"}
{"smiles": "COc1ccc(S(=O)(=O)Nc2cccc3c2O[C@H](CN(C)S(=O)(=O)c2cn(C)cn2)[C@H](C)CN([C@H](C)CO)C3=O)cc1", "cytotoxicity call": "inactive"}
{"smiles": "C[C@@H]1CN([C@@H](C)CO)C(=O)c2cccc(NC(=O)Nc3ccc(C(F)(F)F)cc3)c2O[C@@H]1CN(C)CC1CCCCC1", "cytotoxicity call": "inactive"}
{"smiles": "O=C(O)c1cn(C2CC2)c2cc(N3CCC(O)(COc4ccc(N5C[C@H](CO)OC5=O)cc4F)CC3)c(F)cc2c1=O", "cytotoxicity call": "inactive"}
{"smiles": "N=C(N)S/C=C\\C(=O)O", "cytotoxicity call": "inactive"}
{"smiles": "O=C(CCCCCCC(=O)Nc1ccccc1O)N/N=C/c1cc(Br)c(O)c(Br)c1", "cytotoxicity call": "inactive"}
{"smiles": "N[C@H]1CCN(O)C1=O", "cytotoxicity call": "inactive"}
{"smiles": "Cl.NCCCC(N)(C(=O)O)C(F)F.O", "note": "(stereo not given)", "cytotoxicity call": "inactive"}
{"smiles": "CC(C)NC(=O)N(C)C[C@@H]1Oc2ccc(NC(=O)Cn3cnnn3)cc2CC(=O)N([C@H](C)CO)C[C@H]1C", "cytotoxicity call": "inactive"}
{"smiles": "COc1ccc([C@@H]([C@H](Cc2ccccc2)OC(C)=O)N2C[C@@H](OC(C)=O)[C@H]3C(=NO[C@@H]3c3ccccc3)[C@@H]2Cc2ccccc2)cc1", "cytotoxicity call": "inactive"}
{"smiles": "Cc1noc(C)c1S(=O)(=O)N(C)C[C@@H]1Oc2ccc(NS(=O)(=O)c3ccc(Cl)cc3)cc2C(=O)N([C@@H](C)CO)C[C@@H]1C", "cytotoxicity call": "inactive"}
{"smiles": "CCCN(C)C[C@H]1OCCCC[C@@H](C)Oc2ccc(NS(=O)(=O)c3ccc(Cl)cc3)cc2C(=O)N([C@H](C)CO)C[C@@H]1C", "cytotoxicity call": "inactive"}
{"smiles": "CC(C)C#Cc1ccc2c(c1)O[C@H](CN(C)C(=O)Cc1ccccn1)[C@H](C)CN([C@H](C)CO)S2(=O)=O", "cytotoxicity call": "inactive"}
{"smiles": "C[C@H]1CCCCO[C@@H](CN(C)Cc2ccc(C(F)(F)F)cc2)[C@@H](C)CN([C@@H](C)CO)C(=O)c2cc(NS(=O)(=O)c3ccccc3)ccc2O1", "cytotoxicity call": "inactive"}
{"smiles": "COC(CNC(=O)C1CCN(S(=O)(=O)c2cccc3nsnc23)CC1)OC", "cytotoxicity call": "inactive"}
{"smiles": "Cc1ccc(S(=O)(=O)N(C)C[C@H]2Oc3ccc(NS(=O)(=O)c4cn(C)cn4)cc3C(=O)N([C@@H](C)CO)C[C@@H]2C)cc1", "cytotoxicity call": "inactive"}
{"smiles": "CN(C)CCCNC(=O)C[C@H]1CC[C@@H](NS(=O)(=O)c2ccccc2)[C@@H](CO)O1", "cytotoxicity call": "inactive"}
{"smiles": "O=C(C[C@H]1CC[C@H]2[C@@H](COC[C@H](O)CN2Cc2cccc(C(F)(F)F)c2)O1)NCCc1ccncc1", "cytotoxicity call": "inactive"}
{"smiles": "Cl.Fc1ccc(C2CCNCC2COc2ccc3c(c2)OCO3)cc1", "note": "(stereo not given)", "cytotoxicity call": "inactive"}
{"smiles": "COCCC(=O)N1CCC2(CC1)COC2", "cytotoxicity call": "inactive"}
